Test results taken from the supplement of paper PMC8728848.
The list shows a part of the results.

Legend:
Assay in all cases: glycan array binding signal (z-score within array); higher = stronger binding
Settings in all cases: glycan notation: IUPAC condensed, linker removed
[1] = target: GlcNAc(b1-3)Gal(b1-4)GlcNAc(b1-3)Gal(b1-4)GlcNAc(b1-3)GalNAc
How it was run: (§1)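 Negative Z-scores can be read as non-binding. The Z-score is calculated within each array and then averaged across arrays of one protein sequence at different concentrations or buffers and across linkers. Arrays, 3228 in all, were curated from the Consortium for Functional Glycomics database and kept only where the protein sequence was available.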

[2] = target: GlcNAc(b1-3)Gal(b1-4)GlcNAc(b1-3)GalNAc
How it was run: as §1

[3] = target: GlcNAc(b1-3)Gal(b1-4)GlcNAc(b1-3)[GlcNAc(b1-3)Gal(b1-4)GlcNAc(b1-3)]GalNAc
How it was run: as §1

[4] = target: GlcNAc(b1-3)Gal(b1-4)GlcNAc(b1-6)[Gal(b1-3)]GalNAc
How it was run: as §1

[5] = target: GlcNAc(b1-3)Gal(b1-4)GlcNAc(b1-6)[GlcNAc(b1-3)Gal(b1-3)]GalNAc
How it was run: as §1

[6] = target: GlcNAc(b1-3)Gal(b1-4)GlcNAc(b1-6)[GlcNAc(b1-3)]Gal(b1-4)GlcNAc
How it was run: as §1

[7] = target: GlcNAc(b1-3)GalNAc
How it was run: as §1

[8] = target: GlcNAc(b1-3)Man
How it was run: as §1

[9] = target: GlcNAc(b1-3)[GlcNAc(b1-4)][GlcNAc(b1-6)]GlcNAc
How it was run: as §1

[10] = target: GlcNAc(b1-3)[GlcNAc(b1-6)]Gal(b1-4)GlcNAc
How it was run: as §1

[11] = target: GlcNAc(b1-3)[GlcNAc(b1-6)]GalNAc
How it was run: as §1

[12] = target: GlcNAc(b1-4)Gal(b1-4)GlcNAc
How it was run: as §1

[13] = target: GlcNAc(b1-4)GlcNAc
How it was run: as §1

[14] = target: GlcNAc(b1-4)GlcNAc(b1-4)GlcNAc
How it was run: as §1

[15] = target: GlcNAc(b1-4)GlcNAc(b1-4)GlcNAc(b1-4)GlcNAc(b1-4)GlcNAc
How it was run: as §1

[16] = target: GlcNAc(b1-4)GlcNAc(b1-4)GlcNAc(b1-4)GlcNAc(b1-4)GlcNAc(b1-4)GlcNAc
How it was run: as §1

[17] = target: GlcNAc(b1-4)[GlcNAc(b1-6)]GalNAc
How it was run: as §1

[18] = target: GlcNAc(b1-6)Gal(b1-4)GlcNAc
How it was run: as §1

[19] = target: GlcNAc(b1-6)GalNAc
How it was run: as §1

[20] = target: GlcNAc6S(b1-3)Gal(b1-4)GlcNAc
How it was run: as §1

[21] = target: Kdn(a2-3)Gal(b1-3)GalNAc
How it was run: as §1

[22] = target: Kdn(a2-3)Gal(b1-3)GlcNAc
How it was run: as §1

[23] = target: Kdn(a2-3)Gal(b1-4)Glc
How it was run: as §1

[24] = target: Kdn(a2-3)Gal(b1-4)GlcNAc
How it was run: as §1

[25] = target: Kdn(a2-3)Gal(b1-4)[Fuc(a1-3)]GlcNAc
How it was run: as §1

[26] = target: Kdn(a2-6)Gal(b1-4)GlcNAc
How it was run: as §1

[27] = target: Man(a1-2)Man(a1-2)Man(a1-3)Man
How it was run: as §1

[28] = target: Man(a1-2)Man(a1-2)Man(a1-6)[Man(a1-3)]Man
How it was run: as §1

[29] = target: Man(a1-2)Man(a1-3)Man
How it was run: as §1

[30] = target: Man(a1-2)Man(a1-3)[Man(a1-2)Man(a1-6)]Man
How it was run: as §1

[31] = target: Man(a1-2)Man(a1-3)[Man(a1-2)Man(a1-6)]Man(a1-6)[Man(a1-2)Man(a1-2)Man(a1-3)]Man
How it was run: as §1

[32] = target: Man(a1-2)Man(a1-3)[Man(a1-2)Man(a1-6)]Man(a1-6)[Man(a1-2)Man(a1-2)Man(a1-3)]Man(b1-4)GlcNAc(b1-4)GlcNAc
How it was run: as §1

[33] = target: Man(a1-2)Man(a1-3)[Man(a1-6)]Man(a1-6)[Man(a1-2)Man(a1-3)]Man(b1-4)GlcNAc(b1-4)GlcNAc
How it was run: as §1

[34] = target: Man(a1-2)Man(a1-6)[Man(a1-3)]Man(a1-6)[Man(a1-2)Man(a1-2)Man(a1-3)]Man
How it was run: as §1

[35] = target: Man(a1-2)Man(a1-6)[Man(a1-3)]Man(a1-6)[Man(a1-2)Man(a1-2)Man(a1-3)]Man(b1-4)GlcNAc(b1-4)GlcNAc
How it was run: as §1

[36] = target: Man(a1-3)[Man(a1-6)]Man
How it was run: as §1

[37] = target: Man(a1-3)[Man(a1-6)]Man(a1-6)[Man(a1-2)Man(a1-3)]Man(b1-4)GlcNAc(b1-4)GlcNAc
How it was run: as §1

[38] = target: Man(a1-3)[Man(a1-6)]Man(a1-6)[Man(a1-3)]Man
How it was run: as §1

[39] = target: Man(a1-3)[Man(a1-6)]Man(a1-6)[Man(a1-3)]Man(b1-4)GlcNAc(b1-4)GlcNAc
How it was run: as §1

[40] = target: Man(a1-3)[Man(a1-6)]Man(b1-4)GlcNAc(b1-4)GlcNAc
How it was run: as §1

[41] = target: Man(a1-3)[Man(a1-6)]Man(b1-4)GlcNAc(b1-4)[Fuc(a1-6)]GlcNAc
How it was run: as §1

[42] = target: Man(a1-6)Man
How it was run: as §1

[43] = target: Man(b1-4)GlcNAc
How it was run: as §1

[44] = target: MurNAc(b1-4)GlcNAc
How it was run: as §1

[45] = target: Neu5Ac(a2-3)Gal
How it was run: as §1

B1: rCnSL-proB (Clitocybe nebularis) (protein)
chain: PTFSPIFALLAFLPFGTLASLLPQTQLVFRINPNLPGPNDVFVGYRGTNNVVGAIYERDGIKDTPMNNGADAELGPGSYITDDLFTAQIFASGSAGNNPGTTATVCKIYADGVQWRGAPKGYLPVLYFGNGQAAEQTRQTYLQGLDIPGTAIRFANLAKTPNQGPTAPRQMVVPSGGLQTLLKASCFPANHAALPQVLSYFNVRAALPPGWNIRTGPEFPNWTN
Q: B1 was tested. Which “glycan array binding signal (z-score)” value [1] did it give?
A: The value was 0.523.

Q: And the “glycan array binding signal (z-score)” value [2]?
A: Its value is -0.28.

Q: What about the “glycan array binding signal (z-score)” value [3] of the same binder?
A: The value was -0.204.

Q: What about the “glycan array binding signal (z-score)” value [4] of the same binder?
A: Its value is -0.684.

Q: What about the “glycan array binding signal (z-score)” value [5] of the same binder?
A: The value was 0.204.

Q: What about the “glycan array binding signal (z-score)” value [6] of the same binder?
A: The value was -0.219.

Q: What about the “glycan array binding signal (z-score)” value [7] of the same binder?
A: The value was -0.757.

Q: And the “glycan array binding signal (z-score)” value [8]?
A: The value was -0.22.

Q: What about the “glycan array binding signal (z-score)” value [9] of the same binder?
A: Its value is -0.62.

Q: And the “glycan array binding signal (z-score)” value [10]?
A: Its value is -0.317.

Q: What about the “glycan array binding signal (z-score)” value [11] of the same binder?
A: The value was -0.668.

Q: What about the “glycan array binding signal (z-score)” value [12] of the same binder?
A: Its value is 0.458.

Q: And the “glycan array binding signal (z-score)” value [13]?
A: Its value is -0.243.

Q: And the “glycan array binding signal (z-score)” value [14]?
A: The value was -1.44.

Q: What about the “glycan array binding signal (z-score)” value [15] of the same binder?
A: The value was -0.001.

Q: What about the “glycan array binding signal (z-score)” value [16] of the same binder?
A: The value was -0.718.

Q: And the “glycan array binding signal (z-score)” value [17]?
A: The value was -0.808.

Q: What about the “glycan array binding signal (z-score)” value [18] of the same binder?
A: The value was -0.206.

Q: And the “glycan array binding signal (z-score)” value [19]?
A: The value was -0.534.

Q: And the “glycan array binding signal (z-score)” value [20]?
A: Its value is 0.34.

Q: And the “glycan array binding signal (z-score)” value [21]?
A: Its value is -0.229.

Q: What about the “glycan array binding signal (z-score)” value [22] of the same binder?
A: The value was -0.41.

Q: And the “glycan array binding signal (z-score)” value [23]?
A: The value was -1.27.

Q: What about the “glycan array binding signal (z-score)” value [24] of the same binder?
A: The value was -0.337.

Q: And the “glycan array binding signal (z-score)” value [25]?
A: The value was -0.717.

Q: What about the “glycan array binding signal (z-score)” value [26] of the same binder?
A: Its value is -0.277.

Q: What about the “glycan array binding signal (z-score)” value [27] of the same binder?
A: Its value is -0.497.

Q: And the “glycan array binding signal (z-score)” value [28]?
A: Its value is -0.267.

Q: And the “glycan array binding signal (z-score)” value [29]?
A: The value was -0.533.

Q: And the “glycan array binding signal (z-score)” value [30]?
A: Its value is -0.16.

Q: What about the “glycan array binding signal (z-score)” value [31] of the same binder?
A: Its value is -0.197.

Q: What about the “glycan array binding signal (z-score)” value [32] of the same binder?
A: Its value is 0.089.

Q: And the “glycan array binding signal (z-score)” value [33]?
A: The value was -0.399.

Q: What about the “glycan array binding signal (z-score)” value [34] of the same binder?
A: The value was -0.65.

Q: What about the “glycan array binding signal (z-score)” value [35] of the same binder?
A: The value was 0.243.

Q: And the “glycan array binding signal (z-score)” value [36]?
A: The value was -0.191.

Q: What about the “glycan array binding signal (z-score)” value [37] of the same binder?
A: Its value is 0.746.

Q: And the “glycan array binding signal (z-score)” value [38]?
A: The value was -0.048.

Q: What about the “glycan array binding signal (z-score)” value [39] of the same binder?
A: The value was -0.557.

Q: And the “glycan array binding signal (z-score)” value [40]?
A: Its value is -0.355.

Q: What about the “glycan array binding signal (z-score)” value [41] of the same binder?
A: Its value is 0.077.

Q: And the “glycan array binding signal (z-score)” value [42]?
A: The value was -0.439.

Q: What about the “glycan array binding signal (z-score)” value [43] of the same binder?
A: The value was -0.202.

Q: What about the “glycan array binding signal (z-score)” value [44] of the same binder?
A: Its value is -0.477.

Q: And the “glycan array binding signal (z-score)” value [45]?
A: Its value is -0.521.
